Test results published in paper PMC4336329 (PLoS ONE, 2015).
The whole screen tested about 310,000 compounds, of which about 14,000 (4.5%) showed an effect of 50% or more. The effect is printed as a negative number. The list shows a part of the results.

biological target: human ether-à-go-go-related gene (hERG) potassium channel (human, UniProt Q12809); experiment: primary screen, population patch clamp on CHO cells stably expressing hERG
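Further: peak tail current of the secondary pulse compared with the same well before compound.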

human ether-à-go-go-related gene (hERG) potassium channel, sequence (Q12809 whole entry, looked up): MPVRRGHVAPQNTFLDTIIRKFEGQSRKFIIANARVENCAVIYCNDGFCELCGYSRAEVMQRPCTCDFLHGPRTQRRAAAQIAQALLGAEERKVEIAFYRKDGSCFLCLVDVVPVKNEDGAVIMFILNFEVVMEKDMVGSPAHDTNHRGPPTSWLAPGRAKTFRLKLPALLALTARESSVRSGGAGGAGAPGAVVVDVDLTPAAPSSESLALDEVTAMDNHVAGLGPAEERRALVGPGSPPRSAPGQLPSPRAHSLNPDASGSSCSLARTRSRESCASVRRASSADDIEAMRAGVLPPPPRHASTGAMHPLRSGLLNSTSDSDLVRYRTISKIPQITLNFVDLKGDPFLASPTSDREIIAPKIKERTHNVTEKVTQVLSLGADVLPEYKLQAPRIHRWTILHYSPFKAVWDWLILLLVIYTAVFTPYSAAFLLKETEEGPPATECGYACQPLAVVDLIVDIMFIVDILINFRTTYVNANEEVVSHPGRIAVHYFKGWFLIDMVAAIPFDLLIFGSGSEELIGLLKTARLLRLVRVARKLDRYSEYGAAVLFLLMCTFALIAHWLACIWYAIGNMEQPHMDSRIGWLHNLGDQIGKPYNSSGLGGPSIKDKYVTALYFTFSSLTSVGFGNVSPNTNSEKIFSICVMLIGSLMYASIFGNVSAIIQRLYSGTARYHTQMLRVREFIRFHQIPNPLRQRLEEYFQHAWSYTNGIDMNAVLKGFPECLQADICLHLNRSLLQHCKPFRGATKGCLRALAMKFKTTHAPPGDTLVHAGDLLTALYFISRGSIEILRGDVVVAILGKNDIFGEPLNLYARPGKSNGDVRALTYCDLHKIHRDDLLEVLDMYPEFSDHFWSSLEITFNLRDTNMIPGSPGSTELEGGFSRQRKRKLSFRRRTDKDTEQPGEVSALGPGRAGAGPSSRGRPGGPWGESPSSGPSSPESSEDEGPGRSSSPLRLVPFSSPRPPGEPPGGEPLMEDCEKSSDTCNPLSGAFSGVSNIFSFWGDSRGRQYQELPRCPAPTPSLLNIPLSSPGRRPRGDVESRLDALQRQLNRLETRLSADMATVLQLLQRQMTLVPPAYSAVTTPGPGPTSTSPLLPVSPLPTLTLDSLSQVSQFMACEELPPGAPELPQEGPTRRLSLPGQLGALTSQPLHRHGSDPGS

Structure (SMILES) | hERG current change (%, negative = inhibition) at 10uM [%]
O=C(c1c(F)c(F)c(F)c(F)c1F)N1CCc2ccccc21 | 15.6
Cc1cccc(-c2cc3c(N=O)c4ccccc4c-3n[nH]2)c1 | 18.7
CC1CCCC(C)N1C(=O)Nc1cccc(Cl)c1 (centres unmarked) | 5.65
O=C(O)/C=C/C(=O)Nc1ccc(S(=O)(=O)N2CCCC2)cc1 | 7.59
NC(=O)C(F)(F)C12OC3C4C5CC(C6C5C3C61)C42 (centres unmarked) | 15.1
Cc1cc(NC(=O)CSc2nc(C)c(C)c(=O)[nH]2)no1 | 9.12
O=C(NCc1cccs1)C1CC(c2ccc(F)cc2)=NO1 (centres unmarked) | 0.154
COC(=O)C1CCCN1S(=O)(=O)c1ccc2ccccc2c1 (centres unmarked) | -14
CCOC(=O)[C@@H]1[C@H]2COc3ccc(Br)cc3[C@H]2N2C(=O)N(c3ccc(F)cc3)C(=O)[C@]12C | 18.8
CCCS(=O)(=O)N1CCN(Cc2ccco2)CC1.O=C(O)C(=O)O | 10.6
CN1c2ccccc2-c2nc3ccccc3n2C1c1ccccn1 (centres unmarked) | -8.3
CC(C)(C)c1ccc(C(=O)Cn2cnnc2C#N)cc1 | 3.7
CC(C)(C)C(=O)OCCNc1nc(-c2ccccc2)nc2ccccc12 | 3.23
CCOc1cc(/C=N/NC(=O)c2nnn(-c3nonc3N)c2C)ccc1OCc1cccc(F)c1 | 23.1
CC(NC(=O)CNC(=O)c1ccco1)c1ccccc1 (centres unmarked) | 6
Cc1ccc(SCCNC(=O)/C=C/c2ccc(Cl)cc2)cc1 | -0.0121
CCCn1c(SCC(=O)NC2CCCCC2)nnc1C1CC1 | 10.8
Clc1ccc(-c2cn3cccnc3n2)cc1 | 15.8
Cc1nn(C(=O)CN2C(=O)c3ccccc3C2=O)c(C)c1Br | 5.28
CC(C)(C)CC(=O)N1CCN(Cc2ccc3c(c2)OCO3)CC1 | 8.27
NC(=O)Nc1ccc(C(=O)OCC(=O)Nc2ccc([N+](=O)[O-])cc2C(F)(F)F)cc1 | -13.2
Nc1nnc(-c2ccc(Cl)cc2)o1 | 5.01
CCOc1ccccc1N(CC(=O)N1CCc2ccccc2C1)S(C)(=O)=O | 13.3

Structure (SMILES) | hERG current change (%, negative = inhibition) at 10uM [%]
O=c1oc(-c2cccc(S(=O)(=O)N3CCOCC3)c2)nc2ccccc12 | 11.5
Cc1ccc(NC(=O)N2CCN(C(=O)c3ccco3)CC2)cc1Cl | -2.38
COc1ccccc1NC(NC(=O)c1ccco1)C(=O)c1ccccc1 (centres unmarked) | -17.8
O=C(CSC1c2ccccc2-c2ccccc21)N/N=C/c1ccc(C(=O)O)cc1 | 14.3
CCOC(=O)c1ccc2c(c1)nc(C)n2CC | 9.95
CSCc1c(C(=O)NC2CCCc3ccccc32)oc2ccccc12 (centres unmarked) | 6.97
Cc1ccc2c(c1)nnn2C1CCN(S(=O)(=O)c2ccc(C(=O)N3CC(C)CC(C)C3)cc2)CC1 (centres unmarked) | -8.03
COC(=O)C1=C(c2cccc(OCc3ccccc3)c2)C[C@@H]2CC[C@H]1N2C(=O)NCCOc1ccccc1 | 9.99
Cc1cc(C(=O)N2CCCC(Nc3ccc(F)cc3)C2)c(C)o1 (centres unmarked) | -2.86
CC1CC(=O)N(CC(=O)Nc2ccc(Br)cc2)c2ccccc2S1(=O)=O (centres unmarked) | -11.2
CCOC(=O)Cn1c(=O)c2c(nc3n2CCCCN3c2ccc(C)cc2)n(C)c1=O | -19.5
COC(=O)[C@H](Cc1ccccc1)NC(=O)NCC1CCCO1 (some centres unmarked) | 13.1
Nc1cc(N)nc(SCC(=O)Nc2ccc(Br)cc2Cl)n1 | 7.29
COc1ccc(N2C(=O)C3C(C2=O)C(C(=O)c2ccccc2)N2CCCC32)cc1 (centres unmarked) | -26.8
CCOC(C(=O)OCCC[N+](C)(CC)CC)(c1ccccc1)c1ccccc1.COS(=O)(=O)[O-] | 6.63
C=C(C)CN(CC)C(=O)CSc1nc2ncc(Cl)cc2[nH]1 | 3.41
CCOc1ccc(CC(=O)Nc2sc(Cc3ccccc3)c(C)c2C(N)=O)cc1OCC | 0.242
Cc1c(C(=O)Nc2ccc(OC(F)(F)F)cc2)sc2nc3n(c(=O)c12)CCC3 | -8.26
CCCOC(=O)CSc1nnc(-c2cc(OC)c(OC)c(OC)c2)o1 | -6.19
O=C(Nc1cccc2c1C(=O)NC2=O)c1ccc(S(=O)(=O)N2CCCC2)cc1 | -4.47
OC(CNc1nc(-c2cccnc2)nc2ccccc12)c1ccccc1 (centres unmarked) | -36.4
COC(=O)[C@H]1CN(C(=O)c2ccccc2)C(=O)N1 | 0.278
CN(C)CCCNc1nc(-c2ccccc2)c2c(c1C#N)CC(C)(C)OC2 | -57.4

Structure (SMILES) | hERG current change (%, negative = inhibition) at 10uM [%]
Cc1ccc(/C=N/NC(=O)c2cc(-c3ccc(C)o3)[nH]n2)cc1 | 5.08
COc1ccc(CSc2ccc(S(=O)(=O)N3CCCCC3)cn2)cc1F | 3.35
COCCCNC(=O)CS(=O)Cc1nc(-c2cccc(OC)c2)oc1C (centres unmarked) | -3.3
COc1ccc(CC(=O)N2N=C(C)CC2(O)c2cccnc2)cc1OC (centres unmarked) | -17
O=C(CNc1cccc(S(=O)(=O)N2CCCCC2)c1)Nc1ccccc1F | 10.4
CC1(C)O[C@@H]2C[C@H]3[C@@H]4CCC5=CC(=O)CC[C@]5(C)[C@@]4(F)[C@@H](O)C[C@]3(C)[C@]2(C(=O)CCl)O1 | 13.7
O=C(O)c1ccc(Nc2nc(-c3cccnc3)cs2)cc1 | 10.5
CCCCNC(=O)NNC(=O)COc1cc(C)cc(C)c1 | 6.66
Cc1ccccc1CNS(=O)(=O)c1c(C(=O)N2CCCC2)c(C)n(C)c1C | 14.8
CN(C)S(=O)(=O)N(CC(=O)N1CCOCC1)c1ccccc1 | -5.88
COC(=O)CCCN1C(=O)c2cccc3cccc(c23)C1=O | 9.66
Cc1cc(Br)ccc1SCC(=O)OCC(=O)N1CCN(C(=O)c2ccco2)CC1 | -66.8
O=C(Cn1cc(C(=O)C2CC2)c2ccccc21)NCc1ccc2c(c1)OCO2 | 10.2
COc1ccc(Cn2c(=O)[nH]c3cc(C(=O)NCCCN4CCCC4=O)ccc3c2=O)cc1 | 0.0335
Cc1cccc(NC(=O)c2sc3nc(N)c(C#N)cc3c2N)c1 | 13.9
COc1ccc(/C=N/NC(=O)C(=O)N2CCCCCC2)cc1 | 22.2
c1cc2nncn2nc1N1CCCC1 | 2.55
CCOc1ccc(NC(=O)C2CCCN(S(=O)(=O)c3cccc4nsnc34)C2)cc1 (centres unmarked) | -2.01
COc1cccc(CN(C)C(=O)c2cccc(S(=O)(=O)N3CCN(c4ccc(F)cc4)CC3)c2)c1OC | -15.9
C=CCn1c(-c2cc3cccc(OC)c3o2)n[nH]c1=S | 20.1
CCOC(=O)c1c(/N=C/C2C(=O)NC(=S)NC2=O)sc2c1CCC2 | 13.7
CS(=O)(=O)Nc1ccc(C(=O)Nc2ccc3c(c2)OCO3)cc1 | 15.3
CCOc1ccc(CCNC(=O)C(C)n2nc(C)c3c(C)n(-c4ccccc4)nc3c2=O)cc1 (centres unmarked) | -36

Structure (SMILES) | hERG current change (%, negative = inhibition) at 10uM [%]
Cc1cc(SCc2cc(=O)[nH]c3ccccc23)nc2ccccc12 | 16.4
C=C(C)CN1C(=O)c2ccccc2C1=O | -2.81
COc1ccc(-n2c(N)c(C(=O)NCc3ccco3)c3nc4ccccc4nc32)cc1 | 2.86
Cc1cccc(C(=O)Nc2cccc(C(=O)Nc3cc(C)ccn3)c2)c1 | 7.29
CC(=O)c1ccc(N2CCC(c3cc(-c4ccc(Cl)cc4Cl)n[nH]3)CC2)c([N+](=O)[O-])c1 | -3.28
O=C(OC1CCN(c2ncc(C(F)(F)F)cc2Cl)CC1)c1ccccc1 | 3.57
COc1ccc(/C=C/C(=O)O)cc1Cl | 8.47
CCOC(=O)N/N=C\c1ccc(C)s1 | -6.9
COc1cc(NC(=O)Cn2ccsc2=N)c(C)cc1[N+](=O)[O-].Cl | -13.6
Cn1c(-c2sccc2OCc2ccccc2)n[nH]c1=S | 2.09
O=C(CNC(=O)C1CCCCC1)NNC(=O)c1ccccc1Br | 16.7
CCN(CC)C(=O)c1sc2c(c1C)c(=O)n(-c1ccc(OC)cc1OC)c(=O)n2CC(=O)c1ccccc1 | -12.1
CCOS(C)(=O)=O | 22.4
Clc1ccc(CNc2cnccn2)cc1Cl | -4.29
COc1ccc(OC)c(Cc2nnc(CCC(=O)NC(C3CC3)C3CC3)o2)c1 | -2.22
O=C(CCc1c[nH]c2ccccc12)NCCc1ccc(O)cc1 | -1.78
Cc1cccc(N2CCN(C(=O)c3ccc(CS(=O)Cc4cccc(Cl)c4)o3)CC2)c1C (centres unmarked) | -13.5
CCOCC(=O)Nc1ccc([N+](=O)[O-])cc1OC | -19.4
O=C(COc1ccc([N+](=O)[O-])cc1)Nc1nnc(-c2cccnc2)s1 | -17.6
NS(=O)(=O)c1ccc(CNC(=S)NCc2ccc(Cl)cc2)cc1 | -0.561
